# According to the RNAGym collection of RNA variant scans (doi:10.1073/pnas.2313332121):
# Variants at the background level are over-represented here.
# B1: TPR 5TU (parent)
# chain: GGAUCUUCUCGAUCUAACAAAAAAGACAAAUCUGCCACAAAGCUUGAGAGCAUCUUCGGAUGCAGAGGCGGCAGCCUUCGGUGGCGCGAUAGCGCCAACGUUCUCAACUAUGACACGCAAAACGCGUGCUCCGUUGAAUGGAGUUUAUCAUG
# Variants of: B1
# Assay: polymerase ribozyme fitness, log enrichment relative to wild type (log ratio); higher = more active; in vitro selection for triplet polymerase activity
# Method in brief: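 For each subunit of a heterodimeric triplet polymerase ribozyme, a mutant library was built by PCR and transcribed, then taken through a single in vitro selection round in triplicate. Selection involved annealing to a biotinylated primer, the partner subunit and triplets, incubation frozen at −7 °C, gel excision of extended constructs, capture on streptavidin beads and RT-PCR. Genotypes were retained after Illumina sequencing of inputs and outputs only with ≥10 input reads and ≥1 read in each output. Fitness is defined as the logarithm of a genotype's enrichment relative to wild-type enrichment, using inverse-variance-weighted averages across replicates, with the logarithm taken to base 2.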
row,Variant,polymerase ribozyme fitness (log ratio)
1,GGGUCUUCUCGAUCUAUCAAAAAAGACAAAUCUGCCACAAAGCUUGAGAGCAUCUUCGGUUGCAGAGGCGGCAGCCUUCGGUGGCGCGAUAGCGCCAACGUUCUCAACUAUGACACGCAAAACGCGUGCUCCGUUGAAUGGAGUUUAUCAUG [A3G A17U A60U],-1.21
2,GGCUCUUCUCGAUCUAACAAAAAAGACAAAUCUGCCACAAAGCUAGAGAGUAUCUUCGGAUGCAGAGGCGGUAGCCUUCGGUGGCGCGAUUGCGCCAACGUUCUCAACUAUGACACGCAAAACGCGUGCUCCGUUGAAUGGAGUUUAUCAUG [A3C U45A C51U C72U A91U],≤ -4.2
3,GGGUCUUCUCGAUCUAACCAAAAAGACAAAUCUGCCACAAAGCUUGAGAGCAUCUUCGGAUGCAGAGGCGGCAGCCUUCGGUGGCGCGAUAACGCCAGCGUUCUCAACUAUGACACGCAAAACGCGUGCUCCGUUGAAUGGAGUUUAUCAUG [A3G A19C G92A A98G],-3.18
4,GGGUCUUCUCGAUCUAACAAAAUAGACAAAUCUGCCACAAAGCUUGAGACUAUCUUCGGAUGCAGAGGCGGCAGCCUUCGGUGGGGCGAUAGCGCCAACGUUCUCAACUAUGACAUGCAAAACGCGUGCUCCGUUGAAUGGAGUUUAUCAUG [A3G A23U G50C C51U C85G C116U],≤ -4.2
5,GGGUCUUCUCGAUCUAACAAAAUAGACAAAUCUGCCACAAAGCUUGAGAGCAUCUUCGGAUGCAGAGGCGGCAGCCUUCGGUGGAGCGAUAGCGCCAACGUUCUCUACUAUGACACGCAAAACGCGUGCUCCUUUGAAUGGAUUUUAUCAUG [A3G A23U C85A A106U G133U G143U],≤ -4.2
6,GGGUCUUCUCGUUCUAACAAAAAAGACACAUCUGCCACAAAGCUUCAGAGCAUCUUCGGAGGCAGAGGCGGCAGCCUUCGGUGGCGCGAUCGCGCCAACGUUCUCAACUAUGACACGCAAAACGCGUGCUCCGUUGAAUGGAGUUUAUCAUG [A3G A12U A29C G46C U61G A91C],≤ -4.2
7,GGGUCUUCUCGCUCUAACAAAAAAGACAAAUCUGCCACAAAGCUUGAGAGCAUCUUCGGAUUCAGAGGCCGCAGCCUUGGAUGACGCGAUAGCGCCAACGUUCUCAACUAUGACACGCAAAACGCGUGCUCCGUUGAAUGGAGUUUCUCAUG [A3G A12C G62U G70C C79G G81A G84A A147C],≤ -4.2
8,GGGUCUUCUCGAUCUAACUAAAAAGACAAAUCUGCCACACAGCUUGAGAGCAUCUUCGGCUGCAGAGGCGGCAGCCUUCGGUGGGGCGAUAGCGCCAACGUUCUCAACUAUGACACGCAAAACGCGUGCUCCGUUGAAUGGAGUUUAUCAUG [A3G A19U A40C A60C C85G],≤ -4.2
9,GGGUCUUCUCGCUCUAACAAAAAAGACAAAUCUGCCACAACGCUUGAGAGCAUCUUCGGAUGCAGAGGCGGCAGCCUUCGGUGGCGCGAUAGCGUCAAUGUUCUCAACUAUGACACGCAAAACUCGUGCUCCGUUGAAAGGAGUUUAUCAUG [A3G A12C A41C C95U C99U G124U U139A],≤ -4.2
10,GGCUCUUCUCGAUCUAACAAAAAAGACAAAUCUGCCACAAAGCUUGAGAGCAUCUACGGAUGCAGAGGCGGCAGCCUUCGGUGGCGCGAUGGCGCCAACGUUCUCAACUAUGACACGCAAAACGCGUGCUCCGUUGAAUAGAGUUUAUCAUG [A3C U56A A91G G140A],≤ -4.2
11,GGGUCUUCUCGAUCUAACAAAAGAGACAAAUCUGCCACAAAGCUUGAGAGCAUCUUCGGAUGCGGAGGCGGCAGCCUUGGGUGGCGCGAUUGCGCCAACGUUCUCAACUAUGACACGCAAAACUCGUGCUCCUUUGAAUGGAGUUUAUCAUG [A3G A23G A64G C79G A91U G124U G133U],≤ -4.2
12,GGGUCUUCUCGAUCUAGCAAAAAAGACAAAACUGCCACAAAACUUGAGAGCAUCUUCGGAUGCAGAGGCGCCAGCCUUCGGUGGCGCGAUAGCGCCAACGUCCUCAACUAGGACACGCAAAACGCGUGCUCCGUUGAAUGGAGUUUAUCAUG [A3G A17G U31A G42A G71C U102C U111G],≤ -4.2
13,GGGUCUUCUCGAUCUAACAACAAAGACAAAUCUGCCACAAAGCUUGAGAGCAUCUUCGGGUGCAGAGGCGGCAGCAUUCGGUGGGGCGAUAGCGCCAACGUUCUCAACUAUGACACGCAAAACGCGUGCUCCGUUGAAUGGAGUUUAUCAUG [A3G A21C A60G C76A C85G],-0.977
14,GGGUCUUCUCGAUCUAACACAAAAGACAAAUCUGCCACAAAGCUUGAGAGCAACUUCGGAUGCAGAGGCGGCAGCCUUCGCUGGCGCGAUAGCGCCAACGUUCUCAACUAUGACACGCAAGACGCGUGCUCCGUUGAAUGGAGUUUAUCAUG [A3G A20C U53A G81C A121G],-1.59
15,GGGUCUUCUCGAUCUAUCAAAAAAGACAAAUCUGCCACAAAGCUUGAGAGCAUCUUCGGAUGCAGAGGCGGCAGCCUUCGGUGGAGCGAUAGCGCCAACGUUCUCGUCUAUGACACGGAAAACGCGUGCUCCGAUGAAUGGGGUUUAUUAUG [A3G A17U C85A A106G A107U C118G U134A A142G C149U],≤ -4.2
16,GGGUCUUCUCGAUCUAACAAAAAGGACAAAUCUGCCACAAAGCUUGAGAGCAUGUUCGGAUGCAGAGGCGGCAGCCUUCGGUGGCGAGAUAGCGCCAACGUUCUCAACUAUGACACGCAAAACUCGUGCUCCGUUGAAUGGAGUUUAUCAUG [A3G A24G C54G C87A G124U],≤ -4.2
17,GGGUCUUCUCGAUCUAACAAAACAGACAAAUCUGCCACAAAGCUUGAGAGCAUCUUCGGAUGCAGAGGCGGCAGACUUCGGUGGCGCAAUAGCGCCAAGGUUCUCAAUUAUGACACGCAAAACGCGUGCUCCGUUGAAUGGACUUUAUCAUG [A3G A23C C75A G88A C99G C108U G143C],≤ -4.2
18,GGGUCUUCUCGAUCUAACACAAGAGACAAAUCUGCCACAAAGCUUGAGAGCAUCUUCGGAUGCAGAGGCGGCAGCCUUCGGUGGCGCGAUAGCGCCAACGUUCUCAACUAUGACACGCAAAACGCGUGCUCCGUAGAAUGGAGUUUAUCCUG [A3G A20C A23G U135A A150C],≤ -4.2
19,GGGUCUUCUCGAUCUAACAAUAAAGACAAAUCUGCCACAAAGCUUGAGAGCAUCUUCGGAUGCAGUGGCGGCAGCCUUCGGUGUCGAGAUAGCGCCAACGUUCUCAACUAUGACACGCAAAACGCGUGCUCCGUUGAAUGGAGUUUAUCAUG [A3G A21U A66U G84U C87A],≤ -4.2
